# Assay results published in the supplement of paper PMC4604168 (melanoma cell lines).
# This is one part of the list. Repeats are few or missing, and single values can be far off.
# Tests used:
# Test in all cases: cell count relative to DMSO control; melanoma cells; higher = more viable cells
# Settings in all cases: library dose: standard library concentration; 72 h
# [1] = system: SkMel28
# [2] = system: SkMel2
# [3] = system: SkMel30
# [4] = system: SkMel5
# [5] = system: UACC257
# [6] = system: UACC62
# [7] = system: WM115
# [8] = system: WM1716
# [9] = system: WM1745
# [10] = system: WM3526
# 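Also: cells treated in 1,536-well plates, then fixed and DAPI-stained, with nuclei counted from automated high-throughput microscope images.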
SMILES,cell count [1] [%],cell count [2] [%],cell count [3] [%],cell count [4] [%],cell count [5] [%],cell count [6] [%],cell count [7] [%],cell count [8] [%],cell count [9] [%],cell count [10] [%]
"C=CCNC1=C2C[C@@H](C)C[C@H](OC)[C@H](O)[C@@H](C)/C=C(\C)[C@H](OC(N)=O)[C@@H](OC)/C=C\C=C(/C)C(=O)NC(=CC1=O)C2=O [Tanespimycin] + C#Cc1cccc(Nc2ncnc3cc(OCCOC)c(OCCOC)cc23)c1 [erlotinib] (first compound 0.01 µM, partner dose 4 µM)",26.3,67.1,76.7,49.7,89.8,30.4,28.7,84.5,37.5,71.8
"CNC(=O)c1cc(Oc2ccc(NC(=O)Nc3ccc(Cl)c(C(F)(F)F)c3)cc2)ccn1 [sorafenib] + C=CCn1c(=O)c2cnc(Nc3ccc(N4CCN(C)CC4)cc3)nc2n1-c1cccc(C(C)(C)O)n1 [MK1775] (first compound 2 µM, partner dose 0.1 µM)",51.2,92.5,83.6,54.8,88.9,82.2,74,87.3,59.2,78.4
"C[C@@H](Oc1cc(-c2cnn(C3CCNCC3)c2)cnc1N)c1c(Cl)ccc(F)c1Cl [Crizotinib] + C#Cc1cccc(Nc2ncnc3cc(OCCOC)c(OCCOC)cc23)c1 [erlotinib] (first compound 1 µM, partner dose 4 µM)",43.4,74.8,72.6,61.7,94.1,51.7,38.5,78.2,47.2,57
"CS(=O)(=O)CCNCc1ccc(-c2ccc3ncnc(Nc4ccc(OCc5cccc(F)c5)c(Cl)c4)c3c2)o1 [lapatinib] + Nc1ncn([C@H]2C[C@H](O)[C@@H](CO)O2)c(=O)n1 [decitabine] (first compound 4 µM, partner dose 0.5 µM)",81.2,90.7,92.7,57.2,95.5,62.1,74.6,78.9,77.5,86.2
"C[C@@H](Oc1cc(-c2cnn(C3CCNCC3)c2)cnc1N)c1c(Cl)ccc(F)c1Cl [Crizotinib] + Clc1ccc(Nc2nnc(Cc3ccncc3)c3ccccc23)cc1 [vatalanib] (first compound 1 µM, partner dose 10 µM)",74.8,71.6,94.1,52.1,71.7,62.1,65.4,91.2,56.1,61.9
"CNC(=O)c1cc(Oc2ccc(NC(=O)Nc3ccc(Cl)c(C(F)(F)F)c3)cc2)ccn1 [sorafenib] + CS(=O)(=O)CCNCc1ccc(-c2ccc3ncnc(Nc4ccc(OCc5cccc(F)c5)c(Cl)c4)c3c2)o1 [lapatinib] (first compound 2 µM, partner dose 4 µM)",70.8,82.5,50.1,48.5,70.4,41.2,73.8,106,92.7,64.9
"C=CCNC1=C2C[C@@H](C)C[C@H](OC)[C@H](O)[C@@H](C)/C=C(\C)[C@H](OC(N)=O)[C@@H](OC)/C=C\C=C(/C)C(=O)NC(=CC1=O)C2=O [Tanespimycin] + NC(=O)Nc1cc(-c2cccc(F)c2)sc1C(=O)N[C@H]1CCCNC1 [AZD7762] (first compound 0.01 µM, partner dose 0.1 µM)",25.4,62.9,80.9,63.6,113,45.5,18.2,64.7,31.9,38
"CNC(=O)c1cc(Oc2ccc(NC(=O)Nc3ccc(Cl)c(C(F)(F)F)c3)cc2)ccn1 [sorafenib] + O=C(Nc1cccc(Cl)c1)Nc1ncc(CCNc2ncnc3ccsc23)s1 [SNS314] (first compound 2 µM, partner dose 0.004 µM)",49.6,48,89,72.1,72.9,74.3,30.5,38.6,49.5,64.9
"CS(=O)(=O)CCNCc1ccc(-c2ccc3ncnc(Nc4ccc(OCc5cccc(F)c5)c(Cl)c4)c3c2)o1 [lapatinib] + COc1ccc(COc2ccc(Cc3cnc(N)nc3N)cc2OC)cc1 [GW2580] (first compound 4 µM, partner dose 5 µM)",54.8,76.2,90.3,33.8,76.4,41.3,73.9,86.5,,62.4
"CNC(=O)c1cc(Oc2ccc(NC(=O)Nc3ccc(Cl)c(C(F)(F)F)c3)cc2)ccn1 [sorafenib] + COc1cc2ncnc(Nc3ccc(Oc4ccccc4)cc3)c2cc1OC [SrcI1] (first compound 2 µM, partner dose 10 µM)",60.3,72.3,97.6,77.1,70.8,59,54.2,79.3,,52.7
